The structures appear in SMILES notation. The list shows a part of the results. Single values are uncertain, as repeats are few or missing.
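Note: cells treated in 1,536-well plates, then fixed and DAPI-stained, with nuclei counted from automated high-throughput microscope images.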

This assay concerns MeWo. The assay is described as follows: cell count relative to DMSO control; melanoma cells; higher = more viable cells. The following applies: library dose: standard library concentration; 72 h.
`CO[C@H]1C[C@@H]2CC[C@@H](C)[C@@](O)(O2)C(=O)C(=O)N2CCCC[C@H]2C(=O)O[C@H]([C@H](C)C[C@@H]2CC[C@@H](OCCO)[C@H](OC)C2)CC(=O)[C@H](C)/C=C(\C)[C@@H](O)[C@@H](OC)C(=O)[C@H](C)C[C@H](C)/C=C/C=C/C=C/1C` [everolimus] + COc1cc2ncnc(Nc3ccc(Oc4ccccc4)cc3)c2cc1OC [SrcI1] (first compound 0.1 µM, partner dose 10 µM) had a cell count of 51.4%.

As to `CO[C@H]1C[C@@H]2CC[C@@H](C)[C@@](O)(O2)C(=O)C(=O)N2CCCC[C@H]2C(=O)O[C@H]([C@H](C)C[C@@H]2CC[C@@H](OCCO)[C@H](OC)C2)CC(=O)[C@H](C)/C=C(\C)[C@@H](O)[C@@H](OC)C(=O)[C@H](C)C[C@H](C)/C=C/C=C/C=C/1C` [everolimus] + COc1ccc(-c2ccc3c(N4CCOCC4)nc(N4C[C@@H](C)O[C@@H](C)C4)nc3n2)cc1CO [KU0063794] (first compound 0.1 µM, partner dose 0.1 µM), the cell count is 47.2%. `CC(=O)c1c(C)c2cnc(Nc3ccc(N4CCNCC4)cn3)nc2n(C2CCCC2)c1=O` [palbociclib] + COc1ccc(Cl)c(Nc2nc3ccccc3nc2NS(=O)(=O)c2cccc(NC(=O)C(C)(C)N)c2)c1 [XL147] (first compound 0.2 µM, partner dose 4 µM) came in with a cell count of 69.7%.

For the compound `CC(=O)c1c(C)c2cnc(Nc3ccc(N4CCNCC4)cn3)nc2n(C2CCCC2)c1=O` [palbociclib] + COc1ccc2c(c1)CCC1C2CCC2(C)C(NCCCCCCN3C(=O)C=CC3=O)CCC12 [U73122] (first compound 0.2 µM, partner dose 2 µM), the cell count came to 76.9%.

`Nc1ccn([C@@H]2O[C@H](CO)[C@@H](O)C2(F)F)c(=O)n1` [gemcitabine] + CO[C@@H]1[C@H](N(C)C(=O)c2ccccc2)C[C@H]2O[C@]1(C)n1c3ccccc3c3c4c(c5c6ccccc6n2c5c31)C(=O)NC4 [Midostaurin] (first compound 0.002 µM, partner dose 0.4 µM) yielded a cell count of 42.4%. The value for `Nc1ccn([C@@H]2O[C@H](CO)[C@@H](O)C2(F)F)c(=O)n1` [gemcitabine] + Cc1nc(Nc2ncc(C(=O)Nc3c(C)cccc3Cl)s2)cc(N2CCN(CCO)CC2)n1 [dasatanib] (first compound 0.002 µM, partner dose 0.02 µM) was 40.3%; that for `CC(=O)O[C@@]12CO[C@@H]1C[C@H](O)[C@@]1(C)C(=O)[C@H](O)C3=C(C)[C@@H](OC(=O)[C@H](O)[C@@H](NC(=O)OC(C)(C)C)c4ccccc4)C[C@@](O)([C@@H](OC(=O)c4ccccc4)[C@H]21)C3(C)C` [Docetaxel] + Cc1cc(Nc2cc(N3CCN(C)CC3)nc(/C=C/c3ccccc3)n2)n[nH]1 [ENMD2076] (first compound 0.0005 µM, partner dose 0.2 µM) was 39.1%; that for `CO[C@H]1C[C@@H]2CC[C@@H](C)[C@@](O)(O2)C(=O)C(=O)N2CCCC[C@H]2C(=O)O[C@H]([C@H](C)C[C@@H]2CC[C@@H](OCCO)[C@H](OC)C2)CC(=O)[C@H](C)/C=C(\C)[C@@H](O)[C@@H](OC)C(=O)[C@H](C)C[C@H](C)/C=C/C=C/C=C/1C` [everolimus] + NCC(=O)Nc1ccc(-n2nc(C(F)(F)F)cc2-c2ccc3c(ccc4ccccc43)c2)cc1 [OSU03012] (first compound 0.1 µM, partner dose 5 µM) was 85.9%. The value for `CC(=O)c1c(C)c2cnc(Nc3ccc(N4CCNCC4)cn3)nc2n(C2CCCC2)c1=O` [palbociclib] + Oc1cc(-c2nc(-c3ccccc3)[nH]c2-c2ccncc2)ccc1Cl [L779450] (first compound 0.2 µM, partner dose 1 µM) was 37.6%.

`Nc1ccn([C@@H]2O[C@H](CO)[C@@H](O)C2(F)F)c(=O)n1` [gemcitabine] + CC1(C)NC(=O)N(c2ccc([N+](=O)[O-])c(C(F)(F)F)c2)C1=O [nilutamide] (first compound 0.002 µM, partner dose 5 µM) displayed a cell count of 49.6%. The compound `CO[C@H]1C[C@@H]2CC[C@@H](C)[C@@](O)(O2)C(=O)C(=O)N2CCCC[C@H]2C(=O)O[C@H]([C@H](C)C[C@@H]2CC[C@@H](OCCO)[C@H](OC)C2)CC(=O)[C@H](C)/C=C(\C)[C@@H](O)[C@@H](OC)C(=O)[C@H](C)C[C@H](C)/C=C/C=C/C=C/1C` [everolimus] + C=CCNC1=C2C[C@@H](C)C[C@H](OC)[C@H](O)[C@@H](C)/C=C(\C)[C@H](OC(N)=O)[C@@H](OC)/C=C\C=C(/C)C(=O)NC(=CC1=O)C2=O [Tanespimycin] (first compound 0.1 µM, partner dose 0.01 µM) displayed a cell count of 53.9%.
